Measured values published in a collection of fitness landscapes (doi:10.1126/science.1257360).
The other results are listed elsewhere or left out.

B1: PhoQ; a variant is named by its letters at X, in order, P23837 (parent)
chain: MKKLLRLFFPLSLRVRFLLATAAVVLVLSLAYGMVALIGYSVSFDKTTFRLLRGESNLFYTLAKWENNKLHVELPENIDKQSPTMTLIYDENGQLLWAQRDVPWLMKMIQPDWLKSNGFHEIEADVNDTSLLLSGDHSIQQQLQEVREDDDDAEMTHSVAVNVYPATSRMPKLTIVVVDTIPVELKSSYMVWSWFIYVLSANLLLVIPLLWVAAWWSLRPIEALAKEVRELEEHNRELLNPATTRELTSLVRNLNRLLKSERERYDKYRTTLTDLTHSLKTPLXXLQXXLRSLRSEKMSVSDAEPVMLEQISRISQQIGYYLHRASMRGGTLLSRELHPVAPLLDNLTSALNKVYQRKGVNISLDISPEISFVGEQNDFVEVMGNVLDNACKYCLEFVEISARQTDEHLYIVVEDDGPGIPLSKREVIFDRGQRVDTLRPGQGVGLAVAREITEQYEGKIVAGESMLGGARMEVIFGRQHSAPKDE

Variants of: B1
Assay: enrichment ratio after two sorts for PhoP signalling (ratio (wild type AVST 3.29)); higher = more functional
Settings: with PhoP (E. coli)

Row | Variant | enrichment ratio
1 | PREH | ≤ 0.25
2 | STWN | ≤ 0.25
3 | KLPL | ≤ 0.25
4 | VMVM | ≤ 0.25
5 | NYMQ | ≤ 0.25
6 | SGRN | ≤ 0.25
7 | IVRW | ≤ 0.25
8 | RFAL | ≤ 0.25
9 | QHPA | ≤ 0.25
10 | WRIN | ≤ 0.25
11 | IMSL | ≤ 0.25
12 | TQAH | 13.3
13 | NPRY | ≤ 0.25
14 | IVEK | ≤ 0.25
15 | SVID | ≤ 0.25
16 | WMMA | ≤ 0.25
17 | SEHP | ≤ 0.25
18 | RAIM | ≤ 0.25
19 | ERYG | ≤ 0.25
20 | QHCS | ≤ 0.25
21 | VDVK | ≤ 0.25
22 | MAWM | 8.69
23 | KCAH | ≤ 0.25
24 | RPKE | ≤ 0.25
25 | IKTD | ≤ 0.25
26 | MANS | ≤ 0.25

Row | Variant | enrichment ratio
27 | RQKH | ≤ 0.25
28 | WLLY | ≤ 0.25
29 | WFFW | ≤ 0.25
30 | PKKD | ≤ 0.25
31 | ANGC | 8.49
32 | DAHW | ≤ 0.25
33 | LKFH | ≤ 0.25
34 | LDKD | ≤ 0.25
35 | PTCL | 0.341
36 | FHIS | ≤ 0.25
37 | RKFP | ≤ 0.25
38 | VMMC | ≤ 0.25
39 | GIMK | ≤ 0.25
40 | RPTK | ≤ 0.25
41 | EYGF | ≤ 0.25
42 | NLRF | ≤ 0.25
43 | FCPR | ≤ 0.25
44 | DMYC | ≤ 0.25
45 | MCKP | ≤ 0.25
46 | DLIS | ≤ 0.25
47 | VPWQ | ≤ 0.25
48 | FGEE | ≤ 0.25
49 | TGQE | 24.5
50 | GNEV | ≤ 0.25
51 | YFGY | ≤ 0.25
52 | KTGK | ≤ 0.25

Row | Variant | enrichment ratio
53 | LPGD | ≤ 0.25
54 | HYEK | ≤ 0.25
55 | AEVR | 1.77
56 | RPCV | ≤ 0.25
57 | HHDN | ≤ 0.25
58 | GWYG | ≤ 0.25
59 | HWPI | ≤ 0.25
60 | FENK | ≤ 0.25
61 | PPHE | ≤ 0.25
62 | QDLF | ≤ 0.25
63 | PKDC | ≤ 0.25
64 | YCLG | 8.9
65 | WIPH | ≤ 0.25
66 | LQFF | ≤ 0.25
67 | GYVM | ≤ 0.25
68 | DWGR | ≤ 0.25
69 | TFRH | ≤ 0.25
70 | SFQI | ≤ 0.25
71 | DHMC | ≤ 0.25
72 | AQWN | ≤ 0.25
73 | IPPI | ≤ 0.25
74 | KICP | ≤ 0.25
75 | FRQP | ≤ 0.25
76 | AMGG | 6.47
77 | FSLY | 3.99
78 | RQFT | ≤ 0.25

Row | Variant | enrichment ratio
79 | LEAA | ≤ 0.25
80 | YLVH | ≤ 0.25
81 | GILA | 11.3
82 | SGCA | 6.95
83 | YCSD | ≤ 0.25
84 | NQHP | ≤ 0.25
85 | PDER | ≤ 0.25
86 | GMKC | ≤ 0.25
87 | PTWS | ≤ 0.25
88 | NQEL | ≤ 0.25
89 | SQCL | 12.1
90 | ADFG | ≤ 0.25
91 | LWCS | ≤ 0.25
92 | KCWI | ≤ 0.25
93 | YGVC | ≤ 0.25
94 | FRNL | ≤ 0.25
95 | AHYR | ≤ 0.25
96 | SFMS | 1.29
97 | YYLR | ≤ 0.25
98 | EAKT | ≤ 0.25
99 | GPYL | ≤ 0.25
100 | FMRD | ≤ 0.25
101 | REGC | ≤ 0.25
102 | AHVP | ≤ 0.25
103 | HREC | ≤ 0.25
104 | VQIM | ≤ 0.25

Row | Variant | enrichment ratio
105 | LMGN | ≤ 0.25
106 | DCDR | ≤ 0.25
107 | THPM | ≤ 0.25
108 | RIKP | ≤ 0.25
109 | KKQA | ≤ 0.25
110 | IQYA | ≤ 0.25
111 | PSTT | ≤ 0.25
112 | LREL | ≤ 0.25
113 | FSER | ≤ 0.25
114 | KPKK | ≤ 0.25
115 | LEHA | ≤ 0.25
116 | ANFI | ≤ 0.25
117 | SIYY | ≤ 0.25
118 | NRWM | ≤ 0.25
119 | EVTF | ≤ 0.25
120 | QTCV | ≤ 0.25
121 | TMTY | 12.9
122 | HLVP | ≤ 0.25
123 | ESRI | ≤ 0.25
124 | ICLR | ≤ 0.25
125 | ANLH | 13
126 | AMLS | 2.42
127 | LMSS | ≤ 0.25
128 | WVNV | ≤ 0.25
129 | GVHH | ≤ 0.25
130 | SFTL | 1.44

Row | Variant | enrichment ratio
131 | RLIH | ≤ 0.25
132 | TCFY | ≤ 0.25
133 | LLQI | ≤ 0.25
134 | FQLM | 1.74
135 | PIQK | ≤ 0.25
136 | MNRE | ≤ 0.25
137 | RIGI | ≤ 0.25
138 | DAGD | ≤ 0.25
139 | EHGG | ≤ 0.25
140 | RHRN | ≤ 0.25
141 | RLEE | ≤ 0.25
142 | DTVF | ≤ 0.25
143 | VAMM | 12.8
144 | KCYL | ≤ 0.25
145 | NMRL | ≤ 0.25
146 | RHEP | ≤ 0.25
147 | KFVF | ≤ 0.25
148 | GCKR | ≤ 0.25
149 | FIHP | ≤ 0.25
150 | IWIN | ≤ 0.25
151 | ICIP | ≤ 0.25
152 | NTIT | ≤ 0.25
153 | PKPQ | ≤ 0.25
